# According to PMC12040169 (PLOS Biology, 2025):
# The other results are listed elsewhere or left out.
# Test system: T1, C. trachomatis L2/434/Bu expressing GFP (CTL2-GFP)
# T1 construct: L2/434/Bu GFP intracellular growth in HeLa cells
# Parameters: species or system HeLa; C. trachomatis total inclusion area by high-content imaging, normalised to DMSO
# Conditions: total inclusion area; 28.5 h, 10 µM; inhibitor
# Method in brief: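 Following bulk GFP and resorufin fluorescence reads, infected cells were fixed, Hoechst-stained and imaged on a high-content platform. Inclusion total area and number per well served as growth proxies; nuclei counts indicated host viability. MICs were derived as for the fluorescence assay.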
row,Structure (SMILES),% of control remaining
1,Brc1ccc(-c2nc(NCCCN3CCOCC3)cc(-c3ccccc3)n2)cc1 [CBK261712],80.0262
2,Cc1ccc(-n2cnnn2)c(S(=O)(=O)N2CCOCC2)c1 [CBK268297],100.777
3,CC1CCN(c2ccc(C(=O)CCCO)cc2)CC1 [CBK010358],112.658
4,O=C(O)CSc1nnc(-c2ccco2)n1-c1ccccc1 [CBK131685],85.0182
5,CCNC(=O)Nc1cc2cccnc2nc1-c1cc(F)cc(F)c1 [CBK070638],77.6213
6,O=C(NCCCc1ccccc1Cl)c1ccc(=O)n(CC(=O)N2CCCCC2)c1 [CBK286078],113.786
7,Nc1ncc(-c2cc3ccccc3o2)nc1-c1ccc(C=O)cc1 [CBK064126],123.147
8,CC(=O)Nc1ccc(S(=O)(=O)N2CCN(S(=O)(=O)c3ccccc3[N+](=O)[O-])CC2)cc1 [CBK264314],103.828
9,O=[N+]([O-])c1cccc(NS(=O)(=O)c2ccc(Cl)c(Cl)c2)c1 [CBK044396],90.2776
10,CCn1c(SCC(=O)Nc2ccc(C(C)=O)cc2)nnc1-c1cc(Br)ccc1O [CBK268515],132.136
11,COc1cc(CNCc2cccs2)cc(Cl)c1OCC(N)=O [CBK270237C],116.133
12,CC(C)(C)C(=O)CN1CCC2(CC1)OCCc1c2[nH]c2ccc(F)cc12 [CBK040237],96.3276
13,NC(=O)CN1CCC2(CC1)CN(CC(N)=O)c1ccccc12 [CBK126789],78.7433
14,NC(=O)CCN1CCC(Cc2ccccc2)CC1 [CBK138317],119.894
15,Cc1cc2c(cc1C)C(O)CC1(CCN(C(=O)c3ccco3)CC1)O2 (centres unmarked) [CBK282839],127.97
16,CNC(=O)c1cccc(NS(=O)(=O)c2sc3ccc(Cl)cc3c2C)c1 [CBK160383],93.9987
17,Cn1c2ccccc2n2c(SCc3nc4ccc([N+](=O)[O-])cc4[nH]3)nnc12 [CBK266853],98.5943
18,N#Cc1ccc(C2NC(=O)c3ccccc3O2)cc1 (centres unmarked) [CBK288180],94.7682
19,CCNC(=S)/N=C(\NCc1cccnc1)Nc1nc(C)cc(C)n1 [CBK267212],80.0321
20,Cc1csc2c(C3CCCN(C(=O)c4ccccn4)C3)nc(C)n12 (centres unmarked) [CBK284594],116.321
21,Cc1sc2nc(NCCO)[nH]c(=O)c2c1C [CBK018257],89.4862
22,CCNc1cc2ccccc2c(-c2ccc(OC)c(C)c2)n1 [CBK089644],95.8398
23,CCC1(CC)C(=O)N=C(C(C)(C)C)NC1=O [CBK076759],93.5681
